Consider 167 variants from the RNAGym collection of RNA variant scans (doi:10.7554/elife.90254).

To fix the notation:
B1: LINE1-mini (parent)
chain: GGCAGAGCUCAACACAGCGUGGCAAAGUGGCUGUGGCUAGACUGCC

The source gives no read counts; variants with many changes may rest on few reads.

In the series the parent is B1. As to the kind of experiment: self-cleavage, relative activity (ratio to wild type); higher = more cleavage; in vitro, sequencing; the parent is a self-cleaving ribozyme.
A14U C37G G40U A41C C42U C45A: the self-cleavage worked out at 0.09.

Take A16C C23U A41C C42G: the self-cleavage was 0.08.

With G5A G19U G30A U38A G40U, the self-cleavage came out at 0.02.

U9G C13A A26C G44A: the self-cleavage stood at 0.09.

On to C3U C10U A25C, for which the self-cleavage is 0.07.

C13U C15A G17U G21A A24C G27C G33U U38A: the self-cleavage is 0.06.

Consider G17U U20G G35U C45U, for which the self-cleavage amounted to 0.01.

G1U C31A G35A G36A C37G: the self-cleavage is 0.02.

On to U9G G22C G30C, for which the self-cleavage worked out at 0.11.

Regarding A6U G17U G40A A41U, the self-cleavage came out at 0.19.

Consider C13G A26C U28G U32G G36U A41G, for which the self-cleavage was determined as 0.08.

Turning to G17U C23G G29C, the self-cleavage came to 0.89.

As for C18U A24G G40C, the self-cleavage is 0.05.

With G5U U20C U38G, the self-cleavage came to 0.01.

As to C8U A25G U28C, the self-cleavage amounted to 0.09.

Regarding G33C C45A C46U, the self-cleavage came to 0.06.

For C15U G21U G35U G40U, the self-cleavage was found to be 0.23.

For C3U G17A G22A, the self-cleavage was found to be 0.09.

For G5C A6U C46U, the self-cleavage amounted to 0.05.

With A26G G27C G35A C37U, the self-cleavage worked out at 0.11.

As for G1A G22A U32A U43C, the self-cleavage came to 0.02.

With G7C C18G G21A G30U C31G U34A G40U, the self-cleavage was determined as 0.01.

For G5U U9A C13A G33C, the self-cleavage was found to be 0.11.

Regarding G1C G7A C18U G29C, the self-cleavage stood at 0.03.

In the case of G2A C13A A16C, the self-cleavage is 0.24.

Consider U20A G22A U32C G35A C45A, for which the self-cleavage turned out to be 0.01.

Consider C3G G7C A24U, for which the self-cleavage came to 0.44.

Take G7C U9A U28G A41C: the self-cleavage amounted to 0.08.

For the variant C18G A26C G36U C42G, the self-cleavage amounted to 0.01.

As for G5U C8A G17A G22U A41U, the self-cleavage was determined as 0.27.

Take G2U A24U U38C: the self-cleavage is 0.02.

Regarding C3G G5U G7C G22U G33C, the self-cleavage was 0.01.

As for G2C U9G A16C U43A, the self-cleavage stood at 0.03.

With A6U C8U C10U U38C, the self-cleavage was found to be 0.05.

For A12C G30A U34C, the self-cleavage came out at 0.01.

As for G5C U20C G21U, the self-cleavage was 0.13.

Turning to C15A G19C G22C C23U G30U, the self-cleavage turned out to be 0.02.

In the case of G1A G2U G7U C23A G27C U32G G35U, the self-cleavage was 0.14.

In the case of C8U U38C C45G, the self-cleavage came to 0.23.

Consider G7C C13G G29U, for which the self-cleavage is 0.1.

In the case of G2U C3G G40U, the self-cleavage stood at 0.03.

With G2U C10U A11C, the self-cleavage turned out to be 0.05.

For the variant U9G G35U U38A, the self-cleavage came out at 0.

For the variant U20G G22U A26G C46A, the self-cleavage is 0.3.

As to G2C C8G C23U, the self-cleavage was found to be 0.01.

Turning to A4G G7C A26C, the self-cleavage worked out at 0.11.

Regarding C3U G35C G44U, the self-cleavage was found to be 0.06.

With G22C C37A U43A, the self-cleavage is 0.

Take G2U U32A C37A: the self-cleavage came out at 0.02.

Turning to A4U A6G C8G G40U, the self-cleavage worked out at 0.06.

With C15U G22C C37A, the self-cleavage is 0.12.

As for A26G G40U A41G C45G, the self-cleavage is 0.06.

Regarding G5C G36U C37U A41C, the self-cleavage amounted to 0.01.

In the case of A4U C8G G30C U34C, the self-cleavage is 0.05.

Regarding C8U G35U U43A, the self-cleavage came to 0.21.

C3G C10A A26U U32A G33C G36A: the self-cleavage stood at 0.01.

Turning to A12G C15A C31A G35U, the self-cleavage was determined as 0.01.

On to G2A C15U C42U, for which the self-cleavage came out at 0.14.

For C3G C13G G19C A39G, the self-cleavage was 0.15.

Consider C10A C13A C18G G35A G36C, for which the self-cleavage is 0.05.

With C3A A16C C31G A41C C42U C45A, the self-cleavage was 0.04.

On to G1A G22U G29U, for which the self-cleavage came to 0.25.

Consider C8G G21C U38A U43A, for which the self-cleavage amounted to 0.12.

For G17A A24U G44A C45G, the self-cleavage was found to be 0.

As to G1C A16C G19A C31G, the self-cleavage turned out to be 0.

As for G2C C8U U9A U20A A25U G40U, the self-cleavage is 0.36.

On to G2U C37U G40U, for which the self-cleavage amounted to 0.07.

As to G17A G30C C46G, the self-cleavage amounted to 0.86.

For A12G C13U G29A, the self-cleavage amounted to 0.03.

As to U9C C15A G17A, the self-cleavage is 0.03.

Consider A4C A12G U28G G30U G33C, for which the self-cleavage amounted to 0.01.

With A14G C15U G19C G27A, the self-cleavage is 0.34.

For the variant A12G G22U C23A U32G G33A U34C, the self-cleavage came to 0.14.

As for G2A G29U C37A, the self-cleavage was determined as 0.46.

For the variant C18U G29U C42U, the self-cleavage is 0.11.

For G1C C10U G17U, the self-cleavage was 0.02.

With A6C G27C C45G, the self-cleavage amounted to 0.1.

As for G2U U34G C46A, the self-cleavage was determined as 0.03.

For the variant G29U G35C G36A, the self-cleavage came out at 0.19.

Regarding C3G G40C U43A C45A, the self-cleavage worked out at 0.05.

In the case of C3U C8A G29A A39U, the self-cleavage came out at 0.09.

C3A A24U G27C: the self-cleavage amounted to 0.12.

For G1A C3A G19U G22C A24C G35U, the self-cleavage is 2.54.

Take G1C G2A G40C: the self-cleavage is 0.04.

For the variant A6G C18G A26U G29C, the self-cleavage turned out to be 0.05.

Regarding G22U G33A C45G, the self-cleavage is 0.12.

Consider G2A C18U C23U A25U, for which the self-cleavage turned out to be 0.1.

With A12C C18A G19C G29C U34C C46G, the self-cleavage stood at 0.03.

Take A11G G19U C23A: the self-cleavage was found to be 0.02.

Consider G2A A4U A6C A11U, for which the self-cleavage is 0.06.

G2C U9A A24C A25U A39G G40U: the self-cleavage was determined as 0.08.

Consider G2C G29U U32A G35A A41C, for which the self-cleavage is 0.03.

Turning to G2U C3A A25G, the self-cleavage was 0.12.

Turning to A16U U32C C37U U38C, the self-cleavage came to 0.02.

In the case of G21A G35U C42A, the self-cleavage was 0.08.

Turning to G7U G29U C37G U43A, the self-cleavage stood at 0.02.

G7C C10G C31U: the self-cleavage amounted to 0.12.

On to G1C G33U C42G C46A, for which the self-cleavage is 0.02.

Take C13U A16G U34G: the self-cleavage came to 0.01.

In the case of U9C C10A G22A, the self-cleavage is 0.05.

As to U9C G17A C18A G30A, the self-cleavage came to 0.04.

With A6C G36U A41G, the self-cleavage turned out to be 0.01.

Regarding C8U A14G U32C, the self-cleavage was 0.09.

With A25C G40U C42U, the self-cleavage stood at 0.04.

With A16U U20G G22C, the self-cleavage worked out at 0.08.

For the variant G1C G5U A6U C10A, the self-cleavage was determined as 0.

As for G1U G17A C31A C42U, the self-cleavage was 0.04.

On to C3A C18A G27C U43G, for which the self-cleavage amounted to 0.06.

On to G2C C10U A11C C31A C46A, for which the self-cleavage turned out to be 0.03.

For A6G A24C U28G U34C G35A G44U, the self-cleavage was determined as 0.02.

Turning to A4U G40U G44U, the self-cleavage came to 0.18.

In the case of C18G A24C C31U C37A, the self-cleavage was 0.02.

In the case of A12G C15G G27C, the self-cleavage was determined as 0.02.

As to C3A G17U U20C G30A, the self-cleavage came out at 0.57.

Turning to C3G C13G G22C A41C, the self-cleavage is 0.02.

For G1C G17A A24G U38G A39U, the self-cleavage amounted to 0.01.

Consider C8U G17U C18A, for which the self-cleavage amounted to 0.04.

Take U20C G22A G27A C37U G40U: the self-cleavage came to 0.25.

For the variant G27A G35U C37G, the self-cleavage came out at 0.02.

As for C3A C23G A24G G33C G40U, the self-cleavage came to 0.01.

Consider C8U C42U U43C, for which the self-cleavage came to 0.45.

As for G2U U9A C18A, the self-cleavage stood at 0.1.

Take A16G A26U U38C: the self-cleavage was 0.1.

With U20C C31U A41C C45A, the self-cleavage is 0.02.

With A6G C10A A24C U38C C46A, the self-cleavage stood at 0.03.

For C8U A12U G27A G33C, the self-cleavage came to 0.19.

Regarding G17U G33C G35U, the self-cleavage was 0.02.

With C8A C10A G27C A39U, the self-cleavage was determined as 0.02.

For A6G G7C G30U C31U C42U, the self-cleavage was determined as 0.

In the case of G1C C8G A16C, the self-cleavage was found to be 0.01.

For A14U G30C G35U, the self-cleavage stood at 0.07.

Turning to G1C C18U G27A, the self-cleavage was found to be 0.03.

On to C13A A26G C37A, for which the self-cleavage worked out at 0.02.

For A11C U20A G29U, the self-cleavage amounted to 0.01.

In the case of C3A A14C G19C C45A, the self-cleavage turned out to be 0.05.

As to A6U G19A G27C U32G A39U, the self-cleavage is 0.09.

Take A11U G30A G35A C37A C45A: the self-cleavage came out at 0.02.

Take G5U G22C A25C: the self-cleavage was 0.02.

Regarding C8A C13U G21A G35U, the self-cleavage stood at 1.16.

On to U20A G22C G40U, for which the self-cleavage was found to be 0.09.

Turning to G27C C37G A41U C46A, the self-cleavage worked out at 0.

G7A C10A C23G A25G U34A: the self-cleavage stood at 0.01.

Take C18U G22U G35U C46A: the self-cleavage was determined as 0.03.

Take C10U G21U U34G G35C G44U: the self-cleavage was determined as 0.04.

As to G2A A4G A41C C46U, the self-cleavage amounted to 0.64.

With C10A G17A G21C, the self-cleavage was determined as 0.01.

Regarding G17A C31U G40A, the self-cleavage is 0.02.

For the variant A6C G33U U38C C42U, the self-cleavage amounted to 0.02.

As to G7A G21A G40A, the self-cleavage was 2.2.

As for G5U C8U C10A G22A C37A, the self-cleavage was determined as 0.02.

Regarding A4G G7A C10U C23G C31U U43G, the self-cleavage was determined as 0.03.

For the variant G7A C10A U20G, the self-cleavage came out at 0.01.

For the variant G2A C37G C46A, the self-cleavage stood at 0.09.

With A6G A26C G36A G40A, the self-cleavage came to 0.05.

As to A4C C18U G44A, the self-cleavage turned out to be 0.09.

C31G G36A A39U G44C: the self-cleavage amounted to 0.03.

For the variant G1U G27U C46U, the self-cleavage stood at 0.69.

As to A6U C23A U32A G40C C46U, the self-cleavage came out at 0.04.

Turning to C18A U28G U43G C46G, the self-cleavage came to 0.02.

In the case of G7A C23U U32C, the self-cleavage came to 0.27.

Regarding G19A A26C U28C, the self-cleavage is 0.17.

Regarding A14C G30U U32C, the self-cleavage is 0.14.

For the variant G2U A4G A12C A16C G30U U34A, the self-cleavage was 0.01.

Turning to G2C C10G G30C, the self-cleavage came to 0.01.

Regarding A25G G30A G33C, the self-cleavage was found to be 0.05.

For C3U A6U C13A A25C A41C, the self-cleavage is 0.03.

Turning to G7U A12C A14C C15U A26C G40U, the self-cleavage turned out to be 0.02.
